In patent publication US20100172845A1, “COMPOSITIONS AND METHODS FOR TREATING MYCOBACTERIAL INFECTIONS” (BOARD OF REGENTS OF THE UNIVERSITY OF TEXAS SYSTEM, priority 2007, published 2010):

Details: mouse, in vivo

Row | Compound | tissue inflammatory response and damage to bronchial and lung structures
1 | CCCCCCCCCCCCO[C@@H]1O[C@H](CO)[C@@H](O[C@H]2O[C@H](CO)[C@@H](O)[C@H](O)[C@H]2O)[C@H](O)[C@H]1O [DDM, n-dodecyl-β-D-maltoside] | did not cause any tissue inflammatory response and any visible damage to the bronchial and lung structures
2 | CCCCCCCCO[C@@H]1O[C@H](CO)[C@@H](O)[C@H](O)[C@H]1O [OG, n-octyl-β-D-glucoside] | did not cause any tissue inflammatory response and any visible damage to the bronchial and lung structures
